# Data: PubChem BioAssay AID504832 (National Center for Advancing Translational Sciences (NCATS), 2011)
# Hit rate of the full screen: of about 310,000 compounds, about 18,000 (5.8%) were called active. Inconclusive means that the source gave no clear call. Such entries were picked first, then a sample of the others. Calls come from the whole dose curve; as a rule, active = well fitted inhibition curve with a large enough effect; inconclusive = small, poorly fitted or top-dose-only effect, or another doubt; inactive = no such curve, though single readings can be large or run the other way. No potency is given beside an inconclusive call; the fits are too rough.
# Experiment: Primary qHTS for delayed death inhibitors of the malarial parasite plastid, 48 hour incubation
# Settings: P. falciparum luciferase growth in erythrocytes; series mostly up to 28.7 µM
# Procedure, shortened: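 Here the parasites carry a stable luciferase gene and grow inside erythrocytes in Albumax-based RPMI medium with compound for one erythrocytic cycle. Activity is scored as loss of luminescent signal.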
# Potency is the fitted concentration of half-maximal effect; tags give direction and shape of the fitted curve.
row,Structure (SMILES),Potency
1,Cc1ccccc1CCNC(=O)C1CCN(S(=O)(=O)c2ccc(-n3cnnn3)cc2)CC1,"inconclusive [inhibitor, partial curve, poor fit]"
2,CCSc1nc2sc3c(c2c(=O)n1C1CCCCC1)CCN(C)C3,active: 1.31 µM
3,CCc1ccc(-c2nn(Cc3ccccc3)cc2C(=O)NCC2CCCO2)cc1 (stereo unspecified),"inconclusive [inhibitor, single point]"
4,O=C(C1=C[C@@H](c2ccc3c(c2)OCO3)C[C@@H](OCCCCO)O1)N1CCOCC1,"inconclusive [inhibitor, single point]"
5,CC(O)c1nc(C(C)O)n(CC(=O)c2ccccc2)n1 (stereo unspecified),"inconclusive [inhibitor, partial curve, poor fit]"
6,N#C/C(=C\Nc1ccc2cn[nH]c2c1)c1nc(-c2ccccc2)cs1,"inconclusive [inhibitor, partial curve]"
7,COc1c(N2CCN(C(=S)NCc3ccccc3)C(C)C2)c(F)cc2c(=O)c(C(=O)O)cn(C3CC3)c12 (stereo unspecified),active: 9.28 µM
8,COc1ccc2[nH]cc(C(=O)CNc3nc(C)cs3)c2c1,active: 1.65 µM
9,Cc1ccc(C2CC(c3cccs3)=NN2C(=O)CSC2=NN3CCCC(=O)N=C3S2)cc1 (stereo unspecified),active: 9.28 µM
10,COC(=O)CN1C(CN2CCOCC2)=Nc2ccc(Br)cc2C1c1ccccc1 (stereo unspecified),"inconclusive [inhibitor, partial curve, poor fit]"
11,Cc1ccc(C(=O)CC(=O)COc2ccc(Cl)cc2C)cc1,"inconclusive [inhibitor, partial curve, poor fit]"
12,Cc1ccc(S(=O)(=O)Nc2nc(C)cc(N/N=C/c3ccc(O)cc3)n2)cc1,inactive
13,COc1ccc(C(=O)NC(=S)Nc2ccccc2F)cc1,inactive
14,Cn1c(=O)[nH]c(=O)c2c1nc(N1CCN(Cc3ccccc3)CC1)n2CCCc1ccccc1,active: 5.22 µM
15,CCOc1ccc(CN(C)C(=O)[C@H](Cc2ccccc2)NC(=O)OCc2ccccc2)cc1OC,"inconclusive [inhibitor, partial curve]"
16,Cc1nc(C/C(=N\N)c2ccc(O)cc2O)cs1,"inconclusive [inhibitor, single point]"
17,O=C(c1ccc(Cl)c([N+](=O)[O-])c1)N1CCN(S(=O)(=O)c2ccc(Cl)cc2)CC1,"inconclusive [inhibitor, single point]"
18,CCCCN(C)C(=O)C1CCC(CNS(=O)(=O)c2ccc3c(c2)CC(C)N3C(C)=O)CC1 (stereo unspecified),"inconclusive [inhibitor, partial curve, poor fit]"
19,Cc1cc([N+](=O)[O-])nn1CCCC(=O)NCc1ccc(F)cc1,inactive
20,Cc1ncoc1C(=O)N1CCc2c([nH]c3ccccc23)C1c1ccccc1F (stereo unspecified),"inconclusive [inhibitor, partial curve]"
21,CO[C@@H]1[C@@H](OC(N)=O)[C@@H](O)C(Oc2ccc3c(O)c(NC(=O)c4ccc(O)c(CC=C(C)C)c4)c(=O)oc3c2C)OC1(C)C (stereo partly specified),"inconclusive [inhibitor, single point]"
22,COc1ccc(CN2C(=O)c3cccnc3C2Nc2ccc(OC)c(Cl)c2)cc1 (stereo unspecified),inactive
23,C[C@@H]1CC=C[C@H]2[C@H]1C(=O)N(Cc1ccccc1)[C@H]2c1cccc([N+](=O)[O-])c1,"inconclusive [inhibitor, single point]"
24,Cc1nc(SC(C(=O)c2ccccc2)c2ccccc2)nc2ccccc12 (stereo unspecified),"inconclusive [inhibitor, single point]"

row,Structure (SMILES),Potency
1,O=C1CC(c2ccccc2)CC2=C1C(c1ccccn1)Nc1ccccc1N2 (stereo unspecified),inactive
2,NC(=O)c1nnn(-c2cccc(C(F)(F)F)c2)c1-c1ccccc1,inactive
3,CCCC(=O)Nc1nc(-c2ccccc2)ns1,inactive
4,CC(C)(C)OC(=O)N1CCCC1C(=O)NC(Cc1ccccc1)C(=O)O (stereo unspecified),inactive
5,COCn1c(C(O)c2ccccc2)cc2ccccc21 (stereo unspecified),"inconclusive [inhibitor, partial curve, poor fit]"
6,CCCC(C)NC(=S)Nc1cc(C)cc(C)c1 (stereo unspecified),"inconclusive [inhibitor, partial curve]"
7,COCCN(CC1CCCN(C2Cc3ccccc3C2)C1)C(=O)CCSC (stereo unspecified),inactive
8,Cc1cccc(OP(=O)(NCc2ccccc2)Oc2cccc(C)c2)c1,"inconclusive [inhibitor, single point]"
9,O=C(NCCS(=O)(=O)N1CCN(c2ccccc2F)CC1)c1ccc(Br)o1,"inconclusive [inhibitor, partial curve]"
10,Cc1ccccc1NC(=S)N1CCN(c2ccccc2)CC1,"inconclusive [inhibitor, full curve, poor fit]"
11,CCC(C)[C@H](NC(=O)Nc1cccc(Br)c1)C(=O)OC (stereo partly specified),inactive
12,CCCC(c1nnnn1Cc1ccco1)N1CCN(c2cc(Cl)ccc2C)CC1 (stereo unspecified),active: 10.4 µM
13,O=C1CCC/C(=N\NC(=O)COc2ccc(Cl)cc2)C1,"inconclusive [inhibitor, single point]"
14,O=C(CSc1ccc2nnc(CCNC(=O)c3ccccc3)n2n1)Nc1ccccc1F,"inconclusive [inhibitor, single point]"
15,C(=N\n1cnnc1)/c1cccc(OCCOc2ccccc2)c1,inactive
16,CC(C)NC(=O)CCn1nc(-c2ccc(Cl)cc2)c2ccccc2c1=O,"inconclusive [inhibitor, single point]"
17,O=c1[nH]c2ccccc2nc1CCc1ccccc1,inactive
18,Cc1ccnc(N2C(=O)c3cccc4c([N+](=O)[O-])ccc(c34)C2=O)c1,inactive
19,CCn1cc(CN2CCN(CCc3ccccc3)C(CCO)C2)c(C)n1 (stereo unspecified),inactive
20,O=C(CC(=O)c1ccccc1O)c1cccc(F)c1,"inconclusive [inhibitor, full curve, poor fit]"
21,O=Cc1ccnc(-c2ccc(OC(=O)c3ccco3)cc2)n1,inactive
22,Cn1c(=O)n(Cc2ccccc2)c(=O)c2c1nc1n2CCCN1Cc1ccccc1,"inconclusive [inhibitor, full curve]"
23,CN1CCC(OC(=O)c2cc3cc(Br)ccc3oc2=O)CC1,"inconclusive [inhibitor, full curve]"
24,O=C(Nc1ccc(F)cc1)c1nn(-c2ccccc2)c(=O)cc1Cl,inactive

row,Structure (SMILES),Potency
1,Cc1ccc(S(=O)(=O)N(CC(=O)NC2CC2)c2ccc(C)c(Cl)c2)cc1,"inconclusive [inhibitor, partial curve]"
2,Cc1ccc(C(=O)NC(=S)Nc2ccc(CN3CCCCC3)cc2)c(C)c1,"inconclusive [inhibitor, partial curve, poor fit]"
3,Cc1ccc(N2CC(C(=O)NCCN3CCOCC3)CC2=O)cc1C (stereo unspecified),inactive
4,Brc1cc2ccccc2[n+](Cc2ccccc2)c1,"inconclusive [inhibitor, single point]"
5,CC(C)C(=O)NC(=S)Nc1ccc(S(=O)(=O)N(C)Cc2ccccc2)cc1,"inconclusive [inhibitor, single point]"
6,O=C(Nc1ccccc1)N1CCN2C(=O)c3ccccc3C12c1ccccc1 (stereo unspecified),"inconclusive [inhibitor, full curve]"
7,CCOC(=O)c1nc(C)nc(Sc2n[nH]c(-c3ccc(C(C)(C)C)cc3)n2)c1C,"inconclusive [inhibitor, single point]"
8,Cc1ccc(NC(=O)CCNCc2ccco2)cc1S(=O)(=O)N(C)C,inactive
9,COc1cc(CNCCN2CCOCC2)ccc1OCc1ccccc1Cl,"inconclusive [inhibitor, partial curve]"
10,Cc1ccc(-c2noc(CCC(=O)NCCN3CCN(Cc4ccccc4)CC3)n2)cc1,"inconclusive [inhibitor, single point]"
11,COc1ccc(-n2c(C)cc(C(=O)CN3CCCCC3)c2C)cc1,"inconclusive [inhibitor, single point]"
12,COc1ccc(N(CC(=O)NCCc2cccc(C)c2)S(=O)(=O)c2c(C)noc2C)cc1,"inconclusive [inhibitor, single point]"
13,N#Cc1ccccc1NC(=O)COC(=O)CCc1ccc(S(=O)(=O)N2CCCCC2)cc1,"inconclusive [inhibitor, partial curve, poor fit]"
14,COc1cc(OC)cc(-c2c(-c3cccs3)c3cc(-c4ccc5c(c4)OCCO5)ccc3n2C)c1,active: 6.57 µM
15,COc1cccc(NC(=O)CN(C)C(=O)c2ccc(COc3ccccc3)o2)c1,active: 14.7 µM
16,CCc1ccccc1-n1c(SCC(=O)NC)nnc1-c1cccnc1,"inconclusive [inhibitor, partial curve, poor fit]"
17,CC1CCN(CC(=O)Nc2nc(-c3ccccc3)cs2)CC1,inactive
18,CCOc1ccccc1NC(=O)CSc1cn[nH]n1,inactive
19,CCc1nc(Nc2ccncc2)c2oc3ccccc3c2n1,active: 13.1 µM
20,COc1ccc(COC(=O)c2ccc3c(=O)n4c(nc3c2)CCC4)cc1F,"inconclusive [inhibitor, partial curve, poor fit]"
21,N/C(=N\OC(=O)COc1ccc(Cl)cc1)c1ccc(Cl)cc1,inactive
22,COc1ccc(CN(C)CC(=O)Nc2cccc(S(=O)(=O)N(C)c3ccccc3)c2)c(OC)c1,"inconclusive [inhibitor, partial curve, poor fit]"
23,COc1ccc(NC(=O)C2=CC(c3ccc(OC)c(OC)c3)=NS(=O)(=O)N2C)cc1,active: 14.7 µM
